The subject of one assay is MX-1. Kind of assay: In vivo efficacy. The source says:
(§1) The cleavable mal-PEG8-val-ala linker-SG3932 linker-warhead ADC offers the widest relative TI and compares favorably to benchmark. The four comparative linker-warheads are provided below.

The subject of a further assay is MDA-MB-468. Kind of assay: In vivo efficacy.
Description: as §1

Assay [1] has as its system HT29+huB7-H4 clone26 cells. Kind of assay: Western blot DNA damage response. The assay is classed as cell-based, human. Particulars: 10 μg/mL ADC or 10 nM warhead, up to 72 hours. How it is done:
Following treatment of HT29+huB7-H4 clone26 cells with NIP228, E02-GL, NIP228-SG3932, E02-GL-SG3932, or the warhead SG3924 as a control (10 ug/ml for the mAbs or ADCs and 10 nM for the warhead), lysate was prepared and subjected to western blot analysis with antibodies to pATR, ATR, pChk1, Chk1, pATM, ATM, pChk2, ChK2, pH2AX, H2AX and actin (loading control)—see FIG. 17A.
HT29+huB7-H4 clone 26 and MX-1 cells were plated in 6-well plates at a density of 500,000 and 1,500,000 cells per well respectively in medium containing 10% heat-inactivated FBS. The next day, the plating medium was removed and cells were subjected to incubation with HT29+huB7-H4 clone26 cells with NIP228, E02-GL, NIP228-SG3932, and E02-GL-SG3932 in complete medium at a concentration of 10 μg/mL. The warhead SG3924 was used at 10 nM as a control. After 72 hours, cells were washed once with phosphate-buffered saline (PBS) and then lysed by adding Laemmil Reducing buffer (loading buffer Boston BioProducts). After a brief incubation, cell lysates were collected, equal amounts were loaded onto Bis NuPAGE Novex Bis-Tris gels (Invitrogen) and proteins transferred to polyvinylidene fluoride (PVDF) membranes (Invitrogen). […] After washing, protein bands were detected by using SuperSignal West Femto Chemiluminescent substrate and SuperSignal West Pico Chemiluminescent substrate (Pierce/Thermo Scientific). […]
Background: Immunoblotting shows a protein as a band on a membrane.

For assay [2], the system named is B7-H4-negative non-transduced HT29. As to the kind of experiment: Flow cytometry binding. In kind it is cell-based, human. (Flow cytometry measures light scatter and fluorescence of single cells or particles in a stream.)

The values below come from patent US20240239894A1, “THERAPEUTIC BINDING MOLECULES” (MedImmune Limited, priority 2020, published 2024).

Entries after “also recorded” stand apart in the source; their conditions may differ.

B1: E02-GL-SG3932: E02-GL conjugated via cleavable mal-PEG8-val-ala linker to TOP1i warhead, DAR of 8 (conjugate)
heavy: QVQLQQWGAGLLKPSETLSLACTVYGGSFSGYYWNWIRQPPGKGLEWIGEINHSGSTSYNPSLKSRVTISVDTSKNQFSLKLSSVTAADTAVYYCARVLYNWNVDSWGQGTLVTVSSASTKGPSVFPLAPSSKSTSGGTAALGCLVKDYFPEPVTVSWNSGALTSGVHTFPAVLQSSGLYSLSSVVTVPSSSLGTQTYICNVNHKPSNTKVDKRV[human IgG1 Fc cut from this listing]
light: DIQMTQSPSSLSASVGDRVTITCRASQDIRNDVGWYQQKPGKAPKRLIYAASRLQSGVPSRFSGSGSGTEFTLTISSLQPEDFATYYCLQHNSYPRTFGQGTKVEIKRTVAAPSVFIFPPSDEQLKSGTASVVCLLNNFYPREAKVQWKVDNALQSGNSQESVTEQDSKDSTYSLSSTLTLSKADYEKHKVYACEVTHQGLSSPVTKSFNRGEC
Turning to B1, the “In vivo efficacy MX-1, dose for tumor stasis” value in the assay with MX-1 (first value of cell) turned out to be 0.57 mg/kg. Further, the “In vivo efficacy MX-1, dose for 30% regression” value in the assay with MX-1 (second value of cell) is given as 1.27 mg/kg. The “In vivo efficacy MDA-MB-468, dose for tumor stasis” value in the assay with MDA-MB-468 (first value of cell) is recorded as 0.89 mg/kg. Moreover, the “In vivo efficacy MDA-MB-468, dose for 30% regression” value in the assay with MDA-MB-468 (second value of cell) is reported as 1.35 mg/kg. Besides, the “DNA damage response signalling (pATM, pATR, pChk1, pChk2, pH2AX)” value in assay [1] was “leads to double strand DNA breaks; also recorded: activation of the DDR signalling pathway”. Further, in assay [2], the cellular binding result was “did not bind”.
